Key:
[1] = system: Magnaporthe grisea; assay type: in vivo; settings: 250 ppm spray, preventive; control value class
[2] = system: Colletotrichum orbiculare; settings: 250 ppm spray (2.5 ml/pot), preventive; 6-10 days after inoculation; control value class
[3] = system: Phytophthora infestans; assay type: in vivo; settings: 250 ppm spray (2.5 ml/pot), preventive; 5-10 days after inoculation; control value class

Compound	Test A control value (blast on rice) [1]	Test H control value (anthracnose on cucumber) [2]	Test F control value (late blight on tomato) [3]
CCn1c(-c2c(F)cccc2F)c(-c2cc(OCC(F)F)ccc2Cl)ccc1=O [Compound 277]	H (H shows more than 50% of control values)	H (H shows more than 50% of control values)	L (L shows 50% or less of control values)
Cn1c(-c2c(F)cccc2F)c(-c2cc(OCC(F)F)ccc2Cl)ccc1=O [Compound 278]	H (H shows more than 50% of control values)	H (H shows more than 50% of control values)	L (L shows 50% or less of control values)
CCn1c(-c2c(F)cccc2F)c(-c2ccc(Cl)cc2)cc(Br)c1=O [Compound 279]	H (H shows more than 50% of control values)	L (L shows 50% or less of control values)	L (L shows 50% or less of control values)
Cn1c(-c2c(F)cccc2F)c(-c2ccc(Cl)cc2)ccc1=O [Compound 280]	H (H shows more than 50% of control values)	H (H shows more than 50% of control values)	L (L shows 50% or less of control values)
CCCOc1cc(F)c(-c2c(-c3cc(OC)cc(OC)c3Cl)ccc(=O)n2C)c(F)c1 [Compound 281]	H (H shows more than 50% of control values)	H (H shows more than 50% of control values)	L (L shows 50% or less of control values)
CCCCOc1cc(F)c(-c2c(-c3cc(OC)cc(OC)c3Cl)ccc(=O)n2C)c(F)c1 [Compound 282]	H (H shows more than 50% of control values)	H (H shows more than 50% of control values)	L (L shows 50% or less of control values)
CCN1C(=O)CCC(c2cccc(C(F)(F)F)c2)=C1c1c(F)cccc1F [Compound 283]	L (L shows 50% or less of control values)	L (L shows 50% or less of control values)	L (L shows 50% or less of control values)
CCn1c(-c2c(F)cccc2F)c(-c2cccc(C(F)(F)F)c2)ccc1=O [Compound 284]	L (L shows 50% or less of control values)	L (L shows 50% or less of control values)	L (L shows 50% or less of control values)
Cn1c(-c2c(F)cccc2F)c(-c2ccc(Cl)cc2)cc(Br)c1=O [Compound 286]	H (H shows more than 50% of control values)	L (L shows 50% or less of control values)	L (L shows 50% or less of control values)
CCn1c(-c2c(F)cccc2F)c(-c2cc(OC3CCCC3)ccc2Cl)ccc1=O [Compound 287]	H (H shows more than 50% of control values)	L (L shows 50% or less of control values)	L (L shows 50% or less of control values)
Cn1c(-c2c(F)cccc2F)c(-c2cc(OC3CCCC3)ccc2Cl)ccc1=O [Compound 288]	L (L shows 50% or less of control values)	L (L shows 50% or less of control values)	L (L shows 50% or less of control values)
Cn1c(-c2c(F)cccc2F)c(-c2ccc(Br)cc2)ccc1=O [Compound 289]	H (H shows more than 50% of control values)	L (L shows 50% or less of control values)	L (L shows 50% or less of control values)
Cn1c(-c2c(F)cccc2F)c(-c2ccc(Br)cc2)cc(Br)c1=O [Compound 290]	H (H shows more than 50% of control values)	H (H shows more than 50% of control values)	L (L shows 50% or less of control values)
Cn1c(-c2c(F)cccc2F)c(-c2ccc(Br)cc2)cc(Cl)c1=O [Compound 291]	H (H shows more than 50% of control values)	H (H shows more than 50% of control values)	L (L shows 50% or less of control values)
CCn1c(-c2c(F)cccc2F)c(-c2ccc(Br)cc2)ccc1=O [Compound 292]	H (H shows more than 50% of control values)	H (H shows more than 50% of control values)	L (L shows 50% or less of control values)
CCn1c(-c2c(F)cccc2F)c(-c2ccc(Br)cc2)cc(Br)c1=O [Compound 293]	H (H shows more than 50% of control values)	H (H shows more than 50% of control values)	L (L shows 50% or less of control values)

Compound	Test A control value (blast on rice) [1]	Test H control value (anthracnose on cucumber) [2]	Test F control value (late blight on tomato) [3]
CCn1c(-c2c(F)cccc2F)c(-c2ccc(Br)cc2)cc(Cl)c1=O [Compound 294]	H (H shows more than 50% of control values)	L (L shows 50% or less of control values)	L (L shows 50% or less of control values)
CCn1c(-c2c(F)cccc2F)c(-c2cc(OC3CCCCC3)ccc2Cl)ccc1=O [Compound 295]	L (L shows 50% or less of control values)	L (L shows 50% or less of control values)	L (L shows 50% or less of control values)
Cn1c(-c2c(F)cccc2F)c(-c2cc(OC3CCCCC3)ccc2Cl)ccc1=O [Compound 296]	L (L shows 50% or less of control values)	L (L shows 50% or less of control values)	L (L shows 50% or less of control values)
CCn1c(-c2c(F)cccc2F)c(-c2cc(OC(=O)OC)ccc2Cl)ccc1=O [Compound 297]	H (H shows more than 50% of control values)	H (H shows more than 50% of control values)	L (L shows 50% or less of control values)
COC(=O)Oc1ccc(Cl)c(-c2ccc(=O)n(C)c2-c2c(F)cccc2F)c1 [Compound 298]	H (H shows more than 50% of control values)	H (H shows more than 50% of control values)	L (L shows 50% or less of control values)
CCn1c(-c2c(F)cccc2F)c(-c2cccc(C(F)(F)F)c2)cc(Cl)c1=O [Compound 299]	H (H shows more than 50% of control values)	L (L shows 50% or less of control values)	L (L shows 50% or less of control values)
CCN1C(=O)CCC(c2ccc(OC)cc2)=C1c1c(F)cccc1F [Compound 300]	H (H shows more than 50% of control values)	L (L shows 50% or less of control values)	L (L shows 50% or less of control values)
CCn1c(-c2c(F)cccc2F)c(-c2ccc(OC)cc2)ccc1=O [Compound 301]	H (H shows more than 50% of control values)	H (H shows more than 50% of control values)	H (H shows more than 50% of control values)
CCn1c(-c2c(F)cccc2F)c(-c2ccc(OC)cc2)cc(Cl)c1=O [Compound 302]	H (H shows more than 50% of control values)	H (H shows more than 50% of control values)	L (L shows 50% or less of control values)
CCn1c(-c2c(F)cccc2F)c(-c2cc(OCC(C)=O)ccc2Cl)ccc1=O [Compound 303]	H (H shows more than 50% of control values)	H (H shows more than 50% of control values)	L (L shows 50% or less of control values)
CC(=O)COc1ccc(Cl)c(-c2ccc(=O)n(C)c2-c2c(F)cccc2F)c1 [Compound 304]	H (H shows more than 50% of control values)	L (L shows 50% or less of control values)	L (L shows 50% or less of control values)
CCn1c(-c2c(F)cccc2F)c(-c2cc(OCSC)ccc2Cl)ccc1=O [Compound 305]	H (H shows more than 50% of control values)	H (H shows more than 50% of control values)	L (L shows 50% or less of control values)
CSCOc1ccc(Cl)c(-c2ccc(=O)n(C)c2-c2c(F)cccc2F)c1 [Compound 306]	H (H shows more than 50% of control values)	H (H shows more than 50% of control values)	L (L shows 50% or less of control values)
CCOC(=O)COc1ccc(Cl)c(-c2ccc(=O)n(CC)c2-c2c(F)cccc2F)c1 [Compound 307]	L (L shows 50% or less of control values)	L (L shows 50% or less of control values)	L (L shows 50% or less of control values)
CCOC(=O)COc1ccc(Cl)c(-c2ccc(=O)n(C)c2-c2c(F)cccc2F)c1 [Compound 308]	L (L shows 50% or less of control values)	L (L shows 50% or less of control values)	L (L shows 50% or less of control values)
